Experimental data from article PMC4336329 (PLoS ONE, 2015).
Hit rate of the full screen: of about 310,000 compounds, about 14,000 (4.5%) showed an effect of 50% or more. Effects have a minus sign here. Some of the results follow.

biological target: human ether-à-go-go-related gene (hERG) potassium channel (human, UniProt Q12809); assay: primary screen, population patch clamp on CHO cells stably expressing hERG
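Also: peak tail current of the secondary pulse compared with the same well before compound.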

human ether-à-go-go-related gene (hERG) potassium channel, sequence (Q12809 whole entry, looked up): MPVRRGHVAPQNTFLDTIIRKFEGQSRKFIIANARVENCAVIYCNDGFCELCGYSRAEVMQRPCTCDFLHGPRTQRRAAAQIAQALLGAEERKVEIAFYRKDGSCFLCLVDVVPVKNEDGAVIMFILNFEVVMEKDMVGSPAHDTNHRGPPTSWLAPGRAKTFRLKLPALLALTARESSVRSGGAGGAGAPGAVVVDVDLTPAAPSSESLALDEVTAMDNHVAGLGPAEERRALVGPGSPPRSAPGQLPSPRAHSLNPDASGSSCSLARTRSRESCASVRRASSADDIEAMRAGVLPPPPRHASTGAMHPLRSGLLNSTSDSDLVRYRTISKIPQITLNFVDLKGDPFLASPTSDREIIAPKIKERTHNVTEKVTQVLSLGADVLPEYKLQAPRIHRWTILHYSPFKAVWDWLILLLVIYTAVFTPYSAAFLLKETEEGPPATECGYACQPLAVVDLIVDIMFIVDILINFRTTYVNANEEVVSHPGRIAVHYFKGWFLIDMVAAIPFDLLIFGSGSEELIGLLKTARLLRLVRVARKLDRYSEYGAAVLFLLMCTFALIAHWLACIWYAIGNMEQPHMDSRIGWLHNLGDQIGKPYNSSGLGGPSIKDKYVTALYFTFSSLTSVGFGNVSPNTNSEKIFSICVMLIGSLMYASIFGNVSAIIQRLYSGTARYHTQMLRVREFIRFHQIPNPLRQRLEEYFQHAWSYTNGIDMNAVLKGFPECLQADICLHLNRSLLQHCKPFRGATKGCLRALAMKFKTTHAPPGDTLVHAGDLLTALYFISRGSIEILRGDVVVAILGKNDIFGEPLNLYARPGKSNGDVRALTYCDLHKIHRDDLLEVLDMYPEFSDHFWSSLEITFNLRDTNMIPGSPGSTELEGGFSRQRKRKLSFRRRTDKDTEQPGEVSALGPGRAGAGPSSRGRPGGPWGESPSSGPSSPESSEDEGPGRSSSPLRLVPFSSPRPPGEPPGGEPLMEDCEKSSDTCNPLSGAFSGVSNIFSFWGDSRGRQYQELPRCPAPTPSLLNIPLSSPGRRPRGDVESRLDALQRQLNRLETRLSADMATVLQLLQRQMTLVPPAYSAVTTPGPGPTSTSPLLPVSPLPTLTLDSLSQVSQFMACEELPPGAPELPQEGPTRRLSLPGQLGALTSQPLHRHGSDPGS

SMILES	hERG current change (%, negative = inhibition) at 10uM [%]
COc1cc(CN2CCN(Cc3cccc(OC)c3OC)CC2)cc(OC)c1	-34.2
CCNC(=O)c1cc2c(=O)n3cccc(C)c3nc2n(CCc2ccccc2)c1=N	-80.3
CCCc1cc(=O)[nH]c(NCCc2ccccc2)n1	0.266
CCOC(=O)C1Nc2c(F)cc(C)cc2C2c3ccccc3CC12 (stereo not drawn)	5.67
CCc1ccc(NC(=O)Cc2ccc(-n3cccc3)cc2)cc1	0.973
NC(=O)c1ccc(Oc2ccc(Cl)cc2)c([N+](=O)[O-])c1	12.6
CCC1Oc2ccccc2N(CC(=O)Nc2ccccc2OC)C1=O (stereo not drawn)	-0.294
COCCCN1C(=O)c2ccc(C(=O)OCC(=O)N(C)c3ccccc3)cc2C1=O	2.63
Clc1ccc2nc(COc3ccccc3)[nH]c2c1	7.7
CC(NC(=O)COC(=O)c1cn(-c2ccccc2)nc1-c1cccs1)c1ccccc1 (stereo not drawn)	0.115
Cc1c(NC(=O)COC(=O)c2cc(-c3cccc4ccccc34)nc3ccccc23)c(=O)n(-c2ccccc2)n1C	1.19
CCOc1ccc(C(=O)Nc2ccc(NC(=O)c3ccco3)c(Cl)c2)cc1Cl	15.7
CC(=O)N1CCN(S(=O)(=O)c2ccc3c(c2)CCC(=O)N3)CC1	5.04
CCC1S/C(=C(\C#N)C(=O)NCc2ccco2)N(c2ccc(Br)cc2)C1=O (stereo not drawn)	2.83
C=Cn1c(C(=O)O)ccc1-c1ccc(OC)cc1	11.8
Cc1cc(S(=O)(=O)Nc2c(C)ccc3nsnc23)ccc1F	-9.06
COC(=O)c1ccc(N2CCN(CC(=O)c3ccc(C)cc3)CC2)c([N+](=O)[O-])c1	-65
C=CCn1cnc2scc(-c3ccccc3)c2c1=O	-6.65
O=[N+]([O-])/C(C(=C(Cl)Cl)N1CCOCC1)=C1\NCCO1	7.24
C(=N\Nc1ccc(-n2ccnc2)nn1)/c1ccccc1	6.53
Cn1cc([N+](=O)[O-])c(C(=O)N/N=C/c2cc3c(cc2Br)OCO3)n1	3.63
CCc1cc2c(N=Nc3c(O)[nH]c4ccccc34)ncnc2s1	12.1
COc1cc2c(cc1O)[C@@H]1Cc3cc(OC)c(OC)cc3C(C2)N1C	-1.85

SMILES	hERG current change (%, negative = inhibition) at 10uM [%]
Cc1nc2ccc(C(=O)O)cc2c2c1CC(CN)O2 (stereo not drawn)	17.9
COc1cc(C(=O)NC2CCN(CC(=O)Nc3cccc(C)c3C)CC2)cc(OC)c1OC	3.93
CCOc1ccccc1N1CCN(S(=O)(=O)c2cc(C)ccc2OC)CC1	9.89
CN1/C(=C\C(=S)NC(=O)c2ccccc2Cl)C(C)(C)c2ccccc21	23.6
COC(=O)C1=C(CN2CCCc3ccccc32)NC(=O)NC1c1ccc(F)cc1 (stereo not drawn)	-15.6
COC/C=C/C1=CC2=CC(=O)C(C)(OC(=O)c3cnc4ccccc4n3)C(=O)C2=CN1c1cccc(C#N)c1 (stereo not drawn)	0.992
Cc1cc(-c2n[nH]c(=S)n2-c2ccccc2)nn1C	7.14
Cc1ccc2c(c1)c(=O)c1c3n2CCN(C(=O)CCl)C3CC1 (stereo not drawn)	-5.11
COc1ccc2c(c1OC)C(=O)OC2Nc1nc2ccccc2s1 (stereo not drawn)	12.4
O=C1CCCC(O)=C1C(C#Cc1ccccc1)C1=C(O)CCCC1=O	-17.9
CCOc1ccc(NS(=O)(=O)c2cc(C)c(C)cc2C)cc1	0.233
CCN1CCN(C(=O)c2ccc(Cl)c(S(=O)(=O)N3CCCCCC3)c2)CC1.Cl	-60.9
Cc1nc2c(-c3ccccc3)c(C)[nH]n2c(=O)c1Cc1ccccc1	-3.64
O=C1C=C(c2ccccc2)CC(c2ccc(F)cc2)C1 (stereo not drawn)	-28.2
COCCn1c(SCC(=O)Nc2c(C)n(C)n(-c3ccccc3)c2=O)nnc1-c1ccncc1	5.95
Cc1ccc(NC(=O)c2cc3ccccc3oc2=O)cc1S(=O)(=O)N(C)C	13.8
O=c1cc(-c2ccccc2)nc(SCc2ccccc2F)[nH]1	17.3
CCOC(=O)C1(CCc2ccccc2)CCN(Cc2ccc(OC)cc2)CC1	-77.5
CC(=O)Nc1nc(C)c(Oc2cccc(C(F)(F)F)c2)c(=O)[nH]1	-0.986
CCCCOc1cc(C(=O)OCCN(CC)CC)ccc1N.Cl	-53.6
Cc1ccc(CN2CCNC(=O)C2CC(=O)O)cc1 (stereo not drawn)	9.54
CC(OC(=O)c1cccnc1)C(=O)Nc1ccc2c(c1)OCO2 (stereo not drawn)	30.2
